# This is one part of the list.
# B1: SP16664D-bth-476-27-476 (Bacteroides thetaiotaomicron) (protein)
# chain: DDLEVGKNIDESAYSGIYENNAYLRDGKSNLVSKVVELHGETYATTVKMGLSKTPNTATSAKVKIDAAYLETYNKAHNTDFALYPQDLVTFANEGILTVNANTKSAEVEMTIRAGEGLQEDKTYAIPVAISDQSSDITIKDEDAKHCIYLVKDMRNAGDAYKGEGVMQGYLFFEVNDVNPLNTLSFQLENGKLLWDVVVLFAANINYDAEAGRPRVQCNPNVQYLLDNNETLLQPLRRRGVKVLLGLLGNHDITGLAQLSEQGAKDFAREVAQYCKAYNLDGVNYDDEYSNSPDLSNPSLTNPSTAAAARLCYETKQAMPDKLVTVFDWGQMYGVATVDGVDAKEWIDIVVANYGSAAYPIGQMTKKQCSGISMEFNLGGGGSLSASKAQSMIDGGYGWFMGFAPSPAKYGSVFSRLQGGGEVLYGSNVAAPTIFYKKNDPTPYKYPDDL
# Tests used:
# Assay in all cases: glycan array binding signal (z-score within array); higher = stronger binding
# Settings in all cases: glycan notation: IUPAC condensed, linker removed
# [1] = target: Fuc(a1-2)Gal(b1-4)GlcNAc(b1-3)Gal(b1-4)GlcNAc(b1-3)Gal(b1-4)GlcNAc
# In short: (§1)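 Columns mapping to the same glycan were averaged after glycan names were converted to IUPAC-condensed notation. The data come from 3228 arrays in the Consortium for Functional Glycomics database, limited to those with an available protein sequence. Binding is reported as a within-array Z-score averaged across arrays of one protein sequence and across linkers.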
# [2] = target: Fuc(a1-2)Gal(b1-4)GlcNAc(b1-3)GalNAc
# In short: as §1
# [3] = target: Fuc(a1-2)Gal(b1-4)GlcNAc(b1-3)[Fuc(a1-2)Gal(b1-4)GlcNAc(b1-6)]GalNAc
# In short: as §1
# [4] = target: Fuc(a1-2)Gal(b1-4)GlcNAc(b1-3)[Fuc(a1-3)[Gal(b1-4)]GlcNAc(b1-6)]Gal(b1-4)Glc
# In short: as §1
# [5] = target: Fuc(a1-2)Gal(b1-4)GlcNAc(b1-6)GalNAc
# In short: as §1
# [6] = target: Fuc(a1-2)Gal(b1-4)GlcNAc6S
# In short: as §1
# [7] = target: Fuc(a1-2)Gal(b1-4)[Fuc(a1-3)]GlcNAc
# In short: as §1
# [8] = target: Fuc(a1-2)Gal(b1-4)[Fuc(a1-3)]GlcNAc(b1-2)Man(a1-3)[Fuc(a1-2)Gal(b1-4)[Fuc(a1-3)]GlcNAc(b1-2)Man(a1-6)]Man(b1-4)GlcNAc(b1-4)[Fuc(a1-6)]GlcNAc
# In short: as §1
# [9] = target: Fuc(a1-2)Gal(b1-4)[Fuc(a1-3)]GlcNAc(b1-2)[Fuc(a1-2)Gal(b1-4)[Fuc(a1-3)]GlcNAc(b1-4)]Man(a1-3)[Fuc(a1-2)Gal(b1-4)[Fuc(a1-3)]GlcNAc(b1-2)Man(a1-6)]Man(b1-4)GlcNAc(b1-4)GlcNAc
# In short: as §1
# [10] = target: Fuc(a1-2)Gal(b1-4)[Fuc(a1-3)]GlcNAc(b1-3)Gal(b1-4)[Fuc(a1-3)]GlcNAc
# In short: as §1
# [11] = target: Fuc(a1-2)Gal(b1-4)[Fuc(a1-3)]GlcNAc(b1-3)Gal(b1-4)[Fuc(a1-3)]GlcNAc(b1-3)Gal(b1-4)[Fuc(a1-3)]GlcNAc
# In short: as §1
# [12] = target: Fuc(a1-2)Gal(b1-4)[Fuc(a1-3)]GlcNAc(b1-3)GalNAc
# In short: as §1
# [13] = target: Fuc(a1-2)Gal(b1-4)[Fuc(a1-3)]GlcNAc(b1-3)[Neu5Ac(a2-6)Gal(b1-4)GlcNAc(b1-6)]Gal(b1-4)Glc
# In short: as §1
# [14] = target: Fuc(a1-2)Gal3S(b1-4)GlcNAc
# In short: as §1
# [15] = target: Fuc(a1-2)Gal6S(b1-3)GlcNAc
# In short: as §1
# [16] = target: Fuc(a1-2)Gal6S(b1-3)GlcNAc6S
# In short: as §1
# [17] = target: Fuc(a1-2)Gal6S(b1-4)Glc
# In short: as §1
# [18] = target: Fuc(a1-2)Gal6S(b1-4)Glc6S
# In short: as §1
# [19] = target: Fuc(a1-2)[Gal(a1-3)]Gal
# In short: as §1
# [20] = target: Fuc(a1-2)[Gal(a1-3)]Gal(b1-3)GalNAc
# In short: as §1
# [21] = target: Fuc(a1-2)[Gal(a1-3)]Gal(b1-3)GalNAc(b1-3)Gal(a1-4)Gal(b1-4)Glc
# In short: as §1
# [22] = target: Fuc(a1-2)[Gal(a1-3)]Gal(b1-3)GlcNAc
# In short: as §1
# [23] = target: Fuc(a1-2)[Gal(a1-3)]Gal(b1-3)GlcNAc(b1-2)Man(a1-3)[Fuc(a1-2)[Gal(a1-3)]Gal(b1-3)GlcNAc(b1-2)Man(a1-6)]Man(b1-4)GlcNAc(b1-4)GlcNAc
# In short: as §1
# [24] = target: Fuc(a1-2)[Gal(a1-3)]Gal(b1-3)GlcNAc(b1-2)Man(a1-3)[Fuc(a1-2)[Gal(a1-3)]Gal(b1-3)GlcNAc(b1-2)Man(a1-6)]Man(b1-4)GlcNAc(b1-4)[Fuc(a1-6)]GlcNAc
# In short: as §1
# [25] = target: Fuc(a1-2)[Gal(a1-3)]Gal(b1-3)GlcNAc(b1-3)GalNAc
# In short: as §1
# [26] = target: Fuc(a1-2)[Gal(a1-3)]Gal(b1-3)GlcNAc(b1-6)GalNAc
# In short: as §1
# [27] = target: Fuc(a1-2)[Gal(a1-3)]Gal(b1-4)Glc
# In short: as §1
# [28] = target: Fuc(a1-2)[Gal(a1-3)]Gal(b1-4)GlcNAc
# In short: as §1
# [29] = target: Fuc(a1-2)[Gal(a1-3)]Gal(b1-4)GlcNAc(b1-2)Man
# In short: as §1
# [30] = target: Fuc(a1-2)[Gal(a1-3)]Gal(b1-4)GlcNAc(b1-2)Man(a1-3)[Fuc(a1-2)[Gal(a1-3)]Gal(b1-4)GlcNAc(b1-2)Man(a1-6)]Man(b1-4)GlcNAc(b1-4)GlcNAc
# In short: as §1
# [31] = target: Fuc(a1-2)[Gal(a1-3)]Gal(b1-4)GlcNAc(b1-2)Man(a1-3)[Fuc(a1-2)[Gal(a1-3)]Gal(b1-4)GlcNAc(b1-2)Man(a1-6)]Man(b1-4)GlcNAc(b1-4)[Fuc(a1-6)]GlcNAc
# In short: as §1
# [32] = target: Fuc(a1-2)[Gal(a1-3)]Gal(b1-4)GlcNAc(b1-3)GalNAc
# In short: as §1
# [33] = target: Fuc(a1-2)[Gal(a1-3)]Gal(b1-4)GlcNAc(b1-3)[Fuc(a1-2)[Gal(a1-3)]Gal(b1-4)GlcNAc(b1-6)]GalNAc
# In short: as §1
# [34] = target: Fuc(a1-2)[Gal(a1-3)]Gal(b1-4)GlcNAc(b1-6)GalNAc
# In short: as §1
# [35] = target: Fuc(a1-2)[Gal(a1-3)]Gal(b1-4)[Fuc(a1-3)]Glc
# In short: as §1
# [36] = target: Fuc(a1-2)[Gal(a1-3)]Gal(b1-4)[Fuc(a1-3)]GlcNAc
# In short: as §1
# [37] = target: Fuc(a1-2)[Gal(a1-3)]Gal(b1-4)[Fuc(a1-3)]GlcNAc(b1-3)GalNAc
# In short: as §1
binder,measurement,setting,value
B1,glycan array binding signal (z-score),[1],-0.247
same,glycan array binding signal (z-score),[2],-0.244
same,glycan array binding signal (z-score),[3],-0.308
same,glycan array binding signal (z-score),[4],-0.158
same,glycan array binding signal (z-score),[5],-0.176
same,glycan array binding signal (z-score),[6],-0.166
same,glycan array binding signal (z-score),[7],-0.147
same,glycan array binding signal (z-score),[8],-0.102
same,glycan array binding signal (z-score),[9],-0.14
same,glycan array binding signal (z-score),[10],-0.17
same,glycan array binding signal (z-score),[11],-0.078
same,glycan array binding signal (z-score),[12],0.134
same,glycan array binding signal (z-score),[13],-0.167
same,glycan array binding signal (z-score),[14],-0.216
same,glycan array binding signal (z-score),[15],-0.203
same,glycan array binding signal (z-score),[16],0.57
same,glycan array binding signal (z-score),[17],0.243
same,glycan array binding signal (z-score),[18],-0.155
same,glycan array binding signal (z-score),[19],-0.002
same,glycan array binding signal (z-score),[20],-0.059
same,glycan array binding signal (z-score),[21],-0.157
same,glycan array binding signal (z-score),[22],0.03
same,glycan array binding signal (z-score),[23],-0.325
same,glycan array binding signal (z-score),[24],0.237
same,glycan array binding signal (z-score),[25],-0.07
same,glycan array binding signal (z-score),[26],0.067
same,glycan array binding signal (z-score),[27],-0.273
same,glycan array binding signal (z-score),[28],-0.15
same,glycan array binding signal (z-score),[29],-0.229
same,glycan array binding signal (z-score),[30],-0.253
same,glycan array binding signal (z-score),[31],-0.327
same,glycan array binding signal (z-score),[32],-0.291
same,glycan array binding signal (z-score),[33],-0.016
same,glycan array binding signal (z-score),[34],0.007
same,glycan array binding signal (z-score),[35],-0.184
same,glycan array binding signal (z-score),[36],-0.205
same,glycan array binding signal (z-score),[37],-0.028

# Reference: the supplement of paper PMC8728848
